Reference: patent US8030025B2, “Antibodies directed to angiopoietin-1 and angiopoietin-2 and uses thereof” (Amgen Inc., dated 2011)

Experiments:
Human Ang1 [1] = target: T1, Human Ang1 (human, UniProt Q15389); assay: angiopoietin:Tie2 neutralization assays (Tables 10 and 11); reference Ang2
Murine Ang2 = Murine Ang2 (mouse, UniProt O35608); assay: angiopoietin:Tie2 neutralization ELISA; coated angiopoietin vs hTie2-Fc
Human Ang2 = Human Ang2 (human, UniProt O15123); assay: as above
Human Ang1 [2] = target: T1, Human Ang1; assay: as above
Rabbit Ang1 = Rabbit Ang1 (rabbit, UniProt G1SK98); assay: as above
Murine Ang1 = Murine Ang1 (mouse, UniProt O08538); assay: as above
Cyno Ang2 = Cyno Ang2 (cynomolgus monkey, UniProt A0A2K5VNX6); assay: as above
Cyno Ang1 = Cyno Ang1 (cynomolgus monkey, UniProt A0A2K5VW43); assay: as above
[3] = target: biotinylated human angiopoietin 1 (human, UniProt Q15389, biotin); assay: angiopoietin:Tie2 neutralization HTRF; biotin-hAng1 vs Tie2-APC
[4] = target: biotinylated human angiopoietin 2 (human, UniProt O15123, biotin); assay: angiopoietin:Tie2 neutralization HTRF; biotin-hAng2 vs Tie2-APC

B1: mL4-3 (Fc fusion)
chain: MREWTEEMQVIFDAMMFGPRNDRGGSGSATGSGSTASSGSGSATHREWTEEMQVIFDAMMFGPRNDRGGGGG[sequence of human IgG1 Fc omitted]
fold selectivity over Ang2 (Human Ang1 [1]): > 40000 fold
IC50 (Murine Ang2): > 10000 nM
IC50 (Human Ang2): 1880 nM
IC50 (Human Ang1 [2]): 0.045 nM
IC50 (Rabbit Ang1): 0.061 nM
IC50 (Murine Ang1): 0.033 nM
IC50 (Cyno Ang2): 1890 nM
IC50 (Cyno Ang1): 0.039 nM
IC50 [3]: 0.022 nM
IC50 [4]: 3080 nM
